In the RNAGym collection of RNA variant scans (doi:10.1093/nar/gkz1192):
The source gives no read counts; variants with many changes may rest on few reads.

B1: CPEB3 Ribozyme (parent)
chain: UAACAGGGGGCCACAGCAGAAGCGUUCACGUCGCAGCCCCUGUCAGAUUCUGGUGAAUCUGCGAAUUCUGCUGUAUAUCUC

Variants of: B1
Experiment: self-cleavage, relative activity (ratio to wild type); higher = more cleavage; in vitro, sequencing
Procedure, shortened: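 Barcoded CPEB3 ribozyme mutants, produced by rounds of error-prone PCR, self-cleaved while being transcribed with T7 RNA polymerase for 5 hours at 37°C and during a subsequent 15 min DNase I step before EDTA was added. Sequencing of template-switched cDNA on Illumina gave cleaved and total reads, and DNA sequencing assigned barcodes to variants. Each variant's relative activity is its cleaved/total read fraction divided by the unmutated ribozyme's fraction, averaged across three batches. A variant needed a minimum of 5 reads.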

| Variant | self-cleavage |
| --- | --- |
| UGACAGGGGGCCACAGCAGAAGCGUUUGCGUCGCAGCCCCUGUCAGAUUCUGGUGAAUCUGCUAAUUCUGCUGUAUAUCUC [A2G C27U A28G G63U] | 0.49 |
| UGACAGGGGGCCACAGCAGAAGCGUUCAGGUCGCAGCCCCUGUCAGAUUCUGGUGAAUCUGCGAAUUCUGCAGUAUAUCUC [A2G C29G U72A] | 0.37 |
| UGACAGGGGGCCACAGCAGAAGCGUUCACGUCGCAGUCCCUGUCAGAUUCUGGAGAAUCUGCGAAUUCUGCUGUAUACCUC [A2G C37U U54A U78C] | 0.3 |
| UGACAGGGGGCCACAGCAGAAGCGUUCACGUCGCAGCCACUGUCAGAUCCUGGUGAAUCUGCGAAUUCUGCUGUAUAUCUC [A2G C39A U49C] | 0.05 |
| UGACAGGGGGCCACAGCAGAAGCGUUCACGUCGCAGCCCAUGUCAGAUUCUGGUGAAUCUGCAAAUUCUGCUAUAUAUCUC [A2G C40A G63A G73A] | 0.47 |
| UGACAGGGGGCCACAGCAGAAGCGUUCACGUCGCAGCCCUUGUCGGAUUCUGGUGAAUCUGCGAAUUCUGCUGCAUAUCUC [A2G C40U A45G U74C] | 0.31 |
| UGACAGGGGGCCACAGCAGAAGCGUUCACGUCGCAGCCCUUGUCAGAUUCCGGUGAAUCAGCGAAUUCUGCUGUAUAUCUC [A2G C40U U51C U60A] | 0.2 |
| UGACAGGGGGCCACAGCAGAAGCGUUCACGUCGCAGCCCCUGUCAGAUUGUGGUGAACCUGCGAACUCUGCUGUAUAUCCC [A2G C50G U58C U66C U80C] | 0.1 |
| UGACAGGGGGCCACAGCAGAAGCGUUCACGUCGCAGCCCCUGUCAGAUUCUGGUGAAUGUGCGAAUUCAGCUGUAUAUCUC [A2G C59G U69A] | 0.11 |
| UGACAGGGGGCCACAGCAGAAGCGUUCACGUCGCAGCCCCUGUCAGAUUCUGGUGAAUCUGCGAAUUUUGCGGUAUAUCUC [A2G C68U U72G] | 0.14 |
| UGACAAGGGGCCGCAGCAGAAGCGUUCACGUCGCAGCCCCCGUCAGAUUCUGGUGAAUCGGCGAAUUCUGCUGUAUAUCUC [A2G G6A A13G U41C U60G] | 0.06 |
| UGACAAGGGGCCACGGCAGAAGCGUUCACGUCGCAGCCCCAGUCAGAUUCUGGUGAAUCUGCGAAUCCUGCUGUAUAUCUC [A2G G6A A15G U41A U67C] | 0.08 |
| UGACAAGGGGCCACAGCAGGAGCGUUCACGUCGCAGCCCCCGGCAGAUCCUGGUGAAUCAGCGAAUUCUGCUGUAUAUCUC [A2G G6A A20G U41C U43G U49C U60A] | 0.05 |
| UGACAAGGGGCCACAGCAGGAGCGUUCACGUCGCAGCCCCCGUCAGAUUCUGGUGAAUCAGCGAAUUCUGCUGUAUGUCUC [A2G G6A A20G U41C U60A A77G] | 0.05 |
| UGACAAGGGGUCACAGCGGAAGCGUUCACGUCGCAGCCCCUGUCAGAUUCUGGUGAAUCUGCGAAUUCUGCUGUAUAUCUC [A2G G6A C11U A18G] | 0.1 |
| UGACAAGGGGCCACAUCAGGAGCGUUCACGUCGCAGCCCCUGUCAGAUUCUGGUGAAUCUGCGAAUUCUGCUGUAUAUCUC [A2G G6A G16U A20G] | 0.4 |
| UGACAAGGGGCCACAGCAGAAGCGUUCACGUCGCAGCCCCCGUCAGAUUCUGGUGAAUCAGCGAAUACUGCUGUAUAUCCC [A2G G6A U41C U60A U67A U80C] | 1.05 |

| Variant | self-cleavage |
| --- | --- |
| UGACAAGGGGCCACAGCAGAAGCGUUCACGUCGCAGCCCCUGUCAGAUUCUGGUGAAUCUGCGAAUUCUGCUGUAUACCUC [A2G G6A U78C] | 0.44 |
| UGACACGGGGCCUCAGCAGAAUCGUUCACGUCGCAGCCCCUGUCAGAUUCUGGUGAAUCAGCGUAUUCUGCUGUAUAUCUC [A2G G6C A13U G22U U60A A64U] | 0.07 |
| UGACACGGGGCUACAGCAGAAGCGUUCACGUCGCAGCCCCUGUCAGAUUCUGGUGGAUCUGCGAAUUUUGCUGUAUAUCUC [A2G G6C C12U A56G C68U] | 0.07 |
| UGACAUGGGGCCACGGCAGAAGCGUUCACGUCGCAGCCCCUGUCAGAUUCUGGUGAAUCUGCGAAUUCUGCUGUAUACCUC [A2G G6U A15G U78C] | 0.3 |
| UGACAUGGGACCACGACAGAAGCGUUCUCGUCGCAGCCCCUGUCAGAUUCUGGUGAAUCUGCGAAUUCUGCUGUAUAUCAC [A2G G6U G10A A15G G16A A28U U80A] | 0.1 |
| UGACAUGGGGCCACAGCAGAAGCGCUCAUGUCGCAGCCCCUGUCAGAUUCUGGUGAAUCUGCGAAUUCUGCUGUAUAUCUC [A2G G6U U25C C29U] | 0.09 |
| UGACAUGGGGCCACAGCAGAAGCGUACACGUCGCAGCCCCUGUCAGAUUCUGGUGAAUCUGCGAAUUCUGCUGUAUAUCUC [A2G G6U U26A] | 0.64 |
| UGACAUGGGGCCACAGCAGAAGCGUUCACGUCGCAGCCCCUGACGGAUUCUGGUGAAUCUGCGAAUUAGGCCGUAUAUCUC [A2G G6U U43A A45G C68A U69G U72C] | 0.28 |
| UGACAGAGGGCCGCAGCAGAAGCGUUCACGUCGCGGCCCCUGUCAGAUUCUGGGGAAUCUGCGAAUUCUGCUGGAUAUCUC [A2G G7A A13G A35G U54G U74G] | 0.43 |
| UGACAGAGGGCCACCGCAGAGGCGUUCGCGUCGCAGCCCCUGUCAGAACCUGGUGAAUCUGCGAAUUCUGCUGUAUAUCUC [A2G G7A A15C A21G A28G U48A U49C] | 0.04 |
| UGACAGAGGGCCACGGCAGAAGCGUUCACGUCGCAGCCCCUGUCAGAUUCUGGUGAAUCUGCGAAUUCUGCUGUAUAUCAC [A2G G7A A15G U80A] | 0.17 |
| UGACAGAGGGCCACAGCAGAAGCGUUCAGGUCGCAGCCCCUGUCAGAUUCUGGUGUAUCUGCGAAUUCUGCUGUAUACCCC [A2G G7A C29G A56U U78C U80C] | 0.1 |
| UGACAGAGGGCCACAGCAGAAGCGUUCACGUCGCAGCCCCUGGCAGAUUCACGUGAAUCUGCGAAUUCUGCUGUAUACCUC [A2G G7A U43G U51A G52C U78C] | 0.04 |
| UGACAGAGGGCCACAGCAGAAGCGUUCACGUCGCAGCCCCUGUCAGAUUCUGGUGAAUCUGCGAAUUCUGCCGUAUACCUC [A2G G7A U72C U78C] | 0.45 |
| UGACAGCGGGCAACAGCAGAAGCGUUCACGUCGCAGCCCUUGUCAGAUACUGGUGAAUCUGCGAAUUCUGCUGUAUAUCUC [A2G G7C C12A C40U U49A] | 0.06 |
| UGACAGUGGGCCUCAGCAGAAGCGUUCACGUCGCAGCCCCUGUCAGAUUCUGGUGAAUCUGCAAAUUCUGCUGUAUAUCUC [A2G G7U A13U G63A] | 0.07 |
| UGACAGGAGGCCGCAGCAGAAGCGUUCACGUCGCAGCACAUGUCUGAUUCUGGUGAAUCUGCGAAUUCGGCUGUAUAUCUC [A2G G8A A13G C38A C40A A45U U69G] | 0.04 |
